{
  "source": "paper PMC4336329",
  "about": "(PLoS ONE, 2015)",
  "note": "Among all 310,000 compounds or so, about 14,000 (4.5%) showed an effect of 50% or more. Effects have a minus sign here. The list shows a part of the results.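 Note: peak tail current of the secondary pulse compared with the same well before compound.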",
  "data": [
    {"target": "human ether-à-go-go-related gene (hERG) potassium channel (human, UniProt Q12809)", "sequence (Q12809 whole entry, looked up)": "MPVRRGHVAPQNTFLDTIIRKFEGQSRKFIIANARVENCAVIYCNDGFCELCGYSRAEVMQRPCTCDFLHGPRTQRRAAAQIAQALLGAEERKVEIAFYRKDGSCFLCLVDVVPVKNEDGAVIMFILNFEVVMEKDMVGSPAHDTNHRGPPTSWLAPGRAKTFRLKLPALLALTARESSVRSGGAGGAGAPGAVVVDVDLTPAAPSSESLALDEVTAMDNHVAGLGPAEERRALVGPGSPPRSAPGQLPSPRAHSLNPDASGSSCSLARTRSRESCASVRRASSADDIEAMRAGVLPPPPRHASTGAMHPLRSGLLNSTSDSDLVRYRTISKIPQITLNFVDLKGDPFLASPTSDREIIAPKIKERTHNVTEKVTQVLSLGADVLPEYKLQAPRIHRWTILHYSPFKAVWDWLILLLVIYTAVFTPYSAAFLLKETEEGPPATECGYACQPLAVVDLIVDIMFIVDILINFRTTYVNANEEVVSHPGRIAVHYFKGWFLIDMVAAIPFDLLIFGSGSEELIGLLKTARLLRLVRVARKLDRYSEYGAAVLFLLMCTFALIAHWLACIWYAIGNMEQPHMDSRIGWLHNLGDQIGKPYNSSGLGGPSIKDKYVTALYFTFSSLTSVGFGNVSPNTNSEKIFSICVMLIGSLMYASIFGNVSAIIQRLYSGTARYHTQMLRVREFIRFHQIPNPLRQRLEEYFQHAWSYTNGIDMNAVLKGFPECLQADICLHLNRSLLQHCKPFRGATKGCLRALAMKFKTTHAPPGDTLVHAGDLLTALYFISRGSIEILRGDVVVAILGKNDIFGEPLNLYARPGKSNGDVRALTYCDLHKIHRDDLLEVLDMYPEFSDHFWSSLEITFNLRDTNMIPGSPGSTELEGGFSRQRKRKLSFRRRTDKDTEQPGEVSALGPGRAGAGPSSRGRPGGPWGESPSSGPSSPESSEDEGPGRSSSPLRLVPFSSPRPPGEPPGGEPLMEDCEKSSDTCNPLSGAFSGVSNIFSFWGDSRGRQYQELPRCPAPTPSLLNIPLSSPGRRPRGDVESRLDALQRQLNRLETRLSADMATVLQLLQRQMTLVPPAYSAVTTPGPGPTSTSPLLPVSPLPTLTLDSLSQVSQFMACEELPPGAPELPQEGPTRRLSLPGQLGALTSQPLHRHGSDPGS", "test": "primary screen, population patch clamp on CHO cells stably expressing hERG", "units": {"hERG current change (%, negative = inhibition) at 10uM": "%"}, "values": [
      {"smiles": "O=C(/C=C/c1cc2ccccc2o1)c1ccccc1O", "hERG current change (%, negative = inhibition) at 10uM": 20.9},
      {"smiles": "COc1ccc(OCCCn2ccnc2)cc1.Cl", "hERG current change (%, negative = inhibition) at 10uM": 34.4},
      {"smiles": "COc1ccc(N2CCN(C(=O)c3cccc(F)c3)CC2)c([N+](=O)[O-])c1", "hERG current change (%, negative = inhibition) at 10uM": -73.2},
      {"smiles": "COC(=O)C1=C2c3[nH]c4ccccc4c3CCN2C(=O)CC1", "hERG current change (%, negative = inhibition) at 10uM": -23.1},
      {"smiles": "CCOc1ccc(NC(=O)NCCN2CCN(c3cccc(C)c3C)CC2)cc1", "hERG current change (%, negative = inhibition) at 10uM": -24.3},
      {"smiles": "COc1cc(C(=O)NC2CC3CCCC(C2)N3C2CC2)cc(OC)c1OC", "note": "(stereo not drawn)", "hERG current change (%, negative = inhibition) at 10uM": 29.4},
      {"smiles": "O=Cc1c(F)cccc1N1CCCC1", "hERG current change (%, negative = inhibition) at 10uM": 13.5},
      {"smiles": "Cc1ccc(S(=O)(=O)N2CCCCC2)cc1NC(=O)COC(=O)C1=COCCO1", "hERG current change (%, negative = inhibition) at 10uM": 7.79},
      {"smiles": "Cc1ccc(NC(=O)CCC(=O)NNC(=O)NC2CCCCC2)c(C)c1", "hERG current change (%, negative = inhibition) at 10uM": 1.46},
      {"smiles": "CCOC(=O)C[C@H]1c2cc(F)ccc2S(=O)(=O)N1Cc1ccc(OC)cc1", "hERG current change (%, negative = inhibition) at 10uM": -11.1},
      {"smiles": "O=C(CSC1CC(=O)N(CCc2ccccc2)C1=O)Nc1ccc(Cl)cc1", "note": "(stereo not drawn)", "hERG current change (%, negative = inhibition) at 10uM": -8.55},
      {"smiles": "O=C(c1cc(COc2c(F)cccc2F)on1)N1CCc2ccccc2C1", "hERG current change (%, negative = inhibition) at 10uM": -10.7},
      {"smiles": "CCC1(c2ccccc2)NC(=O)N(CC(=O)Nc2cc(S(=O)(=O)N3CCCCC3)ccc2OC(C)C)C1=O", "note": "(stereo not drawn)", "hERG current change (%, negative = inhibition) at 10uM": -5.02},
      {"smiles": "COc1ccccc1NC(=O)c1c(C)nn(-c2ccccc2)c1Cl", "hERG current change (%, negative = inhibition) at 10uM": 3.6},
      {"smiles": "O=C(NCCS(=O)(=O)NCCCc1ccccc1)c1ccccc1", "hERG current change (%, negative = inhibition) at 10uM": 5.62},
      {"smiles": "CCCCN1Cc2c(nc3cc(-c4ccco4)[nH]n3c2=O)C1=O", "hERG current change (%, negative = inhibition) at 10uM": 3.54},
      {"smiles": "Cc1cc(C(=O)N/N=C/C(Cl)=C/c2ccccc2)c(C)o1", "hERG current change (%, negative = inhibition) at 10uM": 24.7},
      {"smiles": "O=C(NC(=S)Nc1ccccn1)c1cccc([N+](=O)[O-])c1", "hERG current change (%, negative = inhibition) at 10uM": -12.8},
      {"smiles": "CCOC(=O)c1cnc2ccc(OC)cc2c1Nc1ccc2c(c1)OCCO2", "hERG current change (%, negative = inhibition) at 10uM": 1.43},
      {"smiles": "O=C(Nc1ccnn1C1CCN(C(=O)CCc2ccc(F)cc2)CC1)C1CCOC1", "note": "(stereo not drawn)", "hERG current change (%, negative = inhibition) at 10uM": -20.8},
      {"smiles": "COc1ccc(CN(Cc2ccc(OC)cc2)C(=O)c2cccs2)cc1", "hERG current change (%, negative = inhibition) at 10uM": -15.8},
      {"smiles": "CC(=O)c1sc2nc(C)c3c(c2c1N)CCCC3", "hERG current change (%, negative = inhibition) at 10uM": -2.21},
      {"smiles": "CCSc1nnc(NC(=O)NC2CCCCC2)s1", "hERG current change (%, negative = inhibition) at 10uM": 0.633},
      {"smiles": "O=C(NCCCN1CCCC1=O)Nc1ccc(F)c(Cl)c1", "hERG current change (%, negative = inhibition) at 10uM": -1.92},
      {"smiles": "Oc1ccc(N=Nc2n[nH]c(-c3ccc(Br)cc3)n2)cc1", "hERG current change (%, negative = inhibition) at 10uM": 1.41},
      {"smiles": "O=C(CC(c1ccccc1)c1ccccc1O)NCc1ccccc1", "note": "(stereo not drawn)", "hERG current change (%, negative = inhibition) at 10uM": 1.01},
      {"smiles": "O=C(COc1ccc(Cl)cc1)NCc1nnc(SCC(=O)NC2CCCC2)o1", "hERG current change (%, negative = inhibition) at 10uM": -21.8},
      {"smiles": "O=C(c1ccccc1F)N1CCN(c2ccc([N+](=O)[O-])cc2-n2cccc2)CC1", "hERG current change (%, negative = inhibition) at 10uM": -23.1},
      {"smiles": "COc1ccc(S(=O)(=O)NCC2CCCN(CC(C)(C)C)C2)cc1", "note": "(stereo not drawn)", "hERG current change (%, negative = inhibition) at 10uM": 14.9},
      {"smiles": "CCc1ncc(/C=C2\\C(=O)Nc3ccccc32)[nH]1", "hERG current change (%, negative = inhibition) at 10uM": 4.82},
      {"smiles": "CC1(C)Cc2nc3oc4c(=S)nc[nH]c4c3cc2CO1", "hERG current change (%, negative = inhibition) at 10uM": 13.7},
      {"smiles": "Cc1ccc(NC(=O)c2cnc(SCC(=O)NCC3CCCO3)n(C)c2=O)cc1", "note": "(stereo not drawn)", "hERG current change (%, negative = inhibition) at 10uM": -39.6},
      {"smiles": "O=c1cc(N2CCCC2)[nH]c(=O)n1-c1ccc(Cl)cc1", "hERG current change (%, negative = inhibition) at 10uM": -6.02},
      {"smiles": "CC(NC(=O)c1ccccc1)C(=O)OCC(=O)c1c(N)n(C)c(=O)n(C)c1=O", "note": "(stereo not drawn)", "hERG current change (%, negative = inhibition) at 10uM": -14.1},
      {"smiles": "CC(NC(=O)c1cc(COc2cccc(C(F)(F)F)c2)on1)c1nccs1", "note": "(stereo not drawn)", "hERG current change (%, negative = inhibition) at 10uM": -30.4},
      {"smiles": "Cc1cccc(-c2ncc(CN3CCN(C4CCCC4)C(CCO)C3)cn2)c1", "note": "(stereo not drawn)", "hERG current change (%, negative = inhibition) at 10uM": -46.7},
      {"smiles": "Br.c1ccc(-c2nc(CSc3nnnn3-c3ccccc3)cs2)cc1", "hERG current change (%, negative = inhibition) at 10uM": 4.24},
      {"smiles": "COc1ccc(CCN2CC(C(=O)N(C)CCn3nc(C)cc3C)CCC2=O)cc1", "note": "(stereo not drawn)", "hERG current change (%, negative = inhibition) at 10uM": 8.4},
      {"smiles": "CC(CC(=O)Nc1ccc(F)c([N+](=O)[O-])c1)c1ccccc1", "note": "(stereo not drawn)", "hERG current change (%, negative = inhibition) at 10uM": -9.38},
      {"smiles": "CC(C)c1c(O)cc(-c2ccncc2)n(-c2ccc(Cl)cc2)c1=O", "hERG current change (%, negative = inhibition) at 10uM": -24.7},
      {"smiles": "Cc1noc(C)c1C(=O)OCC(=O)c1cc(C)n(Cc2ccccc2Cl)c1C", "hERG current change (%, negative = inhibition) at 10uM": -7.65},
      {"smiles": "CN(C)CC(=O)N1c2ccccc2Sc2ccc(Cl)cc21.Cl", "hERG current change (%, negative = inhibition) at 10uM": -7.73},
      {"smiles": "Cc1ccc(OCCC(=O)OCC(=O)Nc2c(C)nn(-c3ccccc3)c2C)cc1", "hERG current change (%, negative = inhibition) at 10uM": 3.91},
      {"smiles": "COCCNC(=O)c1c[nH]n2c(=O)cc(C3CCN(C(=O)OC(C)(C)C)CC3)nc12", "hERG current change (%, negative = inhibition) at 10uM": 7.5},
      {"smiles": "Cc1noc(C)c1COC(=O)C1CCN(C(=O)c2ccc(Cl)cc2)CC1", "hERG current change (%, negative = inhibition) at 10uM": -38}
    ]}
  ]
}
